# From a collection of fitness landscapes (doi:10.1016/j.celrep.2020.107928)
# In all, about 81,000 sequences were measured (“one-hybrid fitness for binding NBS DNA”: median about -0.1, highest 2% from about 0.36 on). The list shows a part of the results.
# B1: Caulobacter ParB omega fusion; a variant is named by its letters at X, in order, B8GW30 (parent)
# chain: MESVVVGEPGMSEGRRGLGRGLSALLGEVDAAPAQAPGEQLGGSREAPIEILQRNPDQPRRTFREEDLEDLSNSIREKGVLQPILVRPSPDTAGEYQIVAGERAWRAAQRAGLKTVPIMVRELDDLAVLEIGIIENVQRADLNVLEEALSYKVLMEKFERTQENIAQTIGKSXSHVANXMRLLXLPDEVQSYLVSGELTAXHARAIAAAADPVALAKQIIEGGLSVRETEALARKAPNLSAGKSKGGRPPRVKDTDTQALESDLSSVLGLDVSIDHRGSTGTLTITYATLEQLDDLCNRLTRGI
# Variants of: B1
# Experiment: one-hybrid fitness for binding NBS DNA (the Noc-binding site; scaled: cognate 1, non-cognate 0); higher = stronger binding
# Details: with NBS DNA site
# Outline: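 Pre- and post-selection plasmids were Illumina-sequenced, three replicate libraries were pooled, and any variant with under 10 reads was removed. The libraries were Caulobacter ParB with four specificity codons randomised, selected in E. coli USO through a HIS3 reporter whose site is 19 bp from the promoter. Cells grew 48 hours at 37°C on M9 without histidine, with 0.1 mM IPTG and 5 mM 3-AT. Fitness is the log change in variant-to-wild-type read ratio, rescaled against cognate and non-cognate.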
row,Variant,one-hybrid fitness for binding NBS DNA
1,RNQK,≤ 0.2
2,QFGR,0.262
3,VCLY,≤ 0.2
4,SGPE,≤ 0.2
5,TYRS,≤ 0.2
6,IAAY,≤ 0.2
7,SCYS,≤ 0.2
8,PWWS,≤ 0.2
9,YRGM,≤ 0.2
10,QTLF,≤ 0.2
11,QRQT,0.755
12,IDCR,≤ 0.2
13,APQK,≤ 0.2
14,DIWR,≤ 0.2
15,ILTR,≤ 0.2
16,EKCR,≤ 0.2
17,KWNC,≤ 0.2
18,KRSA,0.255
19,GKKV,≤ 0.2
20,ELVN,≤ 0.2
21,DLFC,≤ 0.2
22,DNRS,≤ 0.2
23,YQLR,≤ 0.2
24,VVCY,≤ 0.2
25,QVGF,≤ 0.2
26,QIAD,≤ 0.2

row,Variant,one-hybrid fitness for binding NBS DNA
1,EIYW,≤ 0.2
2,DTGL,≤ 0.2
3,WVHT,≤ 0.2
4,PMGC,≤ 0.2
5,LEEM,≤ 0.2
6,WCTL,≤ 0.2
7,SLIR,≤ 0.2
8,QELG,≤ 0.2
9,PDPT,≤ 0.2
10,GQVG,≤ 0.2
11,GYPC,≤ 0.2
12,KHDT,≤ 0.2
13,LLQL,≤ 0.2
14,RTNT,0.636
15,LANR,≤ 0.2
16,PITK,≤ 0.2
17,QCDV,≤ 0.2
18,AGNL,≤ 0.2
19,NRLT,≤ 0.2
20,QVRF,≤ 0.2
21,WYYS,≤ 0.2
22,EHRR,≤ 0.2
23,ECKT,≤ 0.2
24,PGYQ,≤ 0.2
25,SPHM,≤ 0.2
26,PNIS,≤ 0.2

row,Variant,one-hybrid fitness for binding NBS DNA
1,KCTC,≤ 0.2
2,LLGR,≤ 0.2
3,TPQD,≤ 0.2
4,KRDL,≤ 0.2
5,GYGM,≤ 0.2
6,GSNT,≤ 0.2
7,CSWC,≤ 0.2
8,PPQV,≤ 0.2
9,EMMN,≤ 0.2
10,PVAP,≤ 0.2
11,PMFR,≤ 0.2
12,SWGV,≤ 0.2
13,RAYA,≤ 0.2
14,SQKG,≤ 0.2
15,ISVV,≤ 0.2
16,ESRL,≤ 0.2
17,AIHK,≤ 0.2
18,WILG,≤ 0.2
19,KIYF,≤ 0.2
20,KSMS,≤ 0.2
21,RMPY,≤ 0.2
22,EQCR,≤ 0.2
23,PSFL,≤ 0.2
24,IWRT,≤ 0.2
25,VMLV,≤ 0.2
26,LTML,≤ 0.2

row,Variant,one-hybrid fitness for binding NBS DNA
1,PVGW,≤ 0.2
2,REHT,≤ 0.2
3,TANR,≤ 0.2
4,TTWY,≤ 0.2
5,ATEC,≤ 0.2
6,DGPC,≤ 0.2
7,YMKC,≤ 0.2
8,SRTF,≤ 0.2
9,IQRS,≤ 0.2
10,PRDE,≤ 0.2
11,TKPV,≤ 0.2
12,PIQS,≤ 0.2
13,QRDG,≤ 0.2
14,DRGY,≤ 0.2
15,GPDF,≤ 0.2
16,HNME,≤ 0.2
17,LSHL,≤ 0.2
18,LALV,≤ 0.2
19,NNAW,≤ 0.2
20,NSKE,≤ 0.2
21,RMYH,≤ 0.2
22,MGDG,≤ 0.2
23,GLTH,≤ 0.2
24,NEMI,≤ 0.2
25,THDN,≤ 0.2
26,EHVA,≤ 0.2

row,Variant,one-hybrid fitness for binding NBS DNA
1,LHGA,≤ 0.2
2,KRNS,0.453
3,NIEL,≤ 0.2
4,THHW,≤ 0.2
5,CCMG,≤ 0.2
6,GKMS,≤ 0.2
7,TRQS,≤ 0.2
8,YHTT,≤ 0.2
9,KIRF,≤ 0.2
10,QWIG,≤ 0.2
11,LKHT,≤ 0.2
12,AMWG,≤ 0.2
13,PSKS,≤ 0.2
14,FVTC,≤ 0.2
15,WGYV,≤ 0.2
16,RLTF,≤ 0.2
17,SQMF,≤ 0.2
18,SAEC,≤ 0.2
19,FHRC,≤ 0.2
20,MLAT,≤ 0.2
21,SPYK,≤ 0.2
22,KMKA,≤ 0.2
23,RYHK,≤ 0.2
24,ATYF,≤ 0.2
25,ANVG,≤ 0.2
26,QGDG,≤ 0.2

row,Variant,one-hybrid fitness for binding NBS DNA
1,SFTI,≤ 0.2
2,VHTV,≤ 0.2
3,SAFF,≤ 0.2
4,TVVE,≤ 0.2
5,TYMA,≤ 0.2
6,VDTT,≤ 0.2
7,ECTE,≤ 0.2
8,RSFD,≤ 0.2
9,PTNA,≤ 0.2
10,RLMT,0.335
11,STFT,≤ 0.2
12,RSEN,≤ 0.2
13,YDQS,≤ 0.2
14,MPKR,≤ 0.2
15,RHIG,≤ 0.2
16,ERMG,≤ 0.2
17,PYTR,≤ 0.2
18,CPND,≤ 0.2
19,AGHV,≤ 0.2
20,TAAI,≤ 0.2
21,TRYG,≤ 0.2
22,LHLL,≤ 0.2
23,GFDF,≤ 0.2
